The results in this text go back to US20070116784A1, “Imatinib combinations for head and neck cancers” (priority 2003, published 2007).

Molecules are shown by their SMILES. Like-named read-outs stand apart in the source and are kept apart here.

Holding throughout (assay): Growth inhibition assay (SRB)
Format in all cases: cell-based, human

One assay relates to FaDu. The following applies: 5-7 days.
Another assay relates to Cal27. Particulars: Cal27, 5-7 days.
For a further assay, the system named is HN5 ACC primary culture. Particulars: 5-7 days.
The mark [1] stands for this setting: Homo sapiens, CAL-27, read-out: IC50.

`COc1cccc2c1C(=O)c1c(O)c3c(c(O)c1C2=O)C[C@@](O)(C(=O)CO)C[C@@H]3O[C@H]1C[C@H](N)[C@H](O)[C@H](C)O1` [Adr]: the IC50 in the assay with FaDu (read-out: IC50) stood at 40 nM; with Cal27 (read-out: IC50) it was 20 nM; in the assay with HN5 ACC primary culture (read-out: IC50), 80 nM.

`N.N.[Cl][Pt][Cl]` [Cisp, cisplatin]: the IC50 with FaDu (read-out: IC50) was 2400 nM; in the assay with Cal27 (read-out: IC50), 7400 nM; in the assay on HN5 ACC primary culture (read-out: IC50) it was 3300 nM.

Take `O=c1[nH]cc(F)c(=O)[nH]1` [Compound 5FU, 5 fluorouracil]: the IC50 in the assay with FaDu (Homo sapiens, read-out: IC50) was 3700 nM; in the assay with Cal27 (setting [1]), 4400 nM; in the assay with HN5 ACC primary culture (Homo sapiens, read-out: IC50) it was 2200 nM.

With `Nc1ccn([C@@H]2O[C@H](CO)[C@@H](O)C2(F)F)c(=O)n1` [Gem, gemcitabine], the IC50 is 4.05 nM in the assay with FaDu (Homo sapiens, read-out: IC50); 7 nM in the assay on Cal27 (setting [1]); 3.98 nM in the assay with HN5 ACC primary culture (Homo sapiens, read-out: IC50).

For the molecule `CO[C@@]12[C@H](COC(N)=O)C3=C(C(=O)C(C)=C(N)C3=O)N1C[C@@H]1N[C@@H]12` [MMC, mitomycin C], the IC50 in the assay with FaDu (read-out: IC50) was determined as 50 nM; in the assay with Cal27 (read-out: IC50), 50 nM; in the assay with HN5 ACC primary culture (read-out: IC50), 730 nM.

With `N[C@@H](Cc1ccc(N(CCCl)CCCl)cc1)C(=O)O` [Mel, melphalan], the IC50 was 6400 nM in the assay on FaDu (Homo sapiens, read-out: IC50) and 11300 nM with Cal27 (setting [1]).

On to `CC(=O)O[C@H]1C(=O)[C@@]2(C)[C@H]([C@H](OC(=O)c3ccccc3)[C@]3(O)C[C@H](OC(=O)[C@H](O)[C@@H](NC(=O)c4ccccc4)c4ccccc4)C(C)=C1C3(C)C)[C@]1(OC(C)=O)CO[C@@H]1C[C@@H]2O` [Taxol, 5(beta),20-Epoxy-1,2(alpha),4,7(beta), 10(beta), b 13(alpha)-hexahydroxytax-11-en-9-one4,10-diacetate 2-benzoate 13-ester with (2R ,3S )-N-benzoyl-3-phenylisoserine], for which the IC50 turned out to be 2.1 ng/mL with FaDu (Homo sapiens, read-out: IC50); 3.8 ng/mL in the assay on Cal27 (setting [1]); 2.4 ng/mL in the assay with HN5 ACC primary culture (Homo sapiens, read-out: IC50).

`CC[C@]1(O)C[C@@H]2CN(CCc3c([nH]c4ccccc34)[C@@](C(=O)OC)(c3cc4c(cc3OC)N(C)[C@H]3[C@@](O)(C(=O)OC)[C@H](OC(C)=O)[C@]5(CC)C=CCN6CC[C@]43[C@@H]65)C2)C1` [VBL, vinblastin]: the IC50 was found to be 0.1 ng/mL in the assay with FaDu, 0.2 ng/mL in the assay on Cal27 and 0.3 ng/mL with HN5 ACC primary culture.
